Assay results from PubChem BioAssay AID624296 (National Center for Advancing Translational Sciences (NCATS), 2012).
Screen size: about 350,000 compounds; about 9,900 (2.8%) were called active. Inconclusive results, whose numbers are uncertain, are shown with a selection of clear calls. Calls follow the shape of the dose curve; as a rule, active = well fitted activation curve with a large enough effect; inconclusive = small, poorly fitted or top-dose-only effect; inactive = no such curve, though single readings can be large or run the other way. Potencies of inconclusive entries are left out as doubtful fits.

test: A quantitative high throughput screen for small molecules that induce DNA re-replication in MCF 10a normal breast cells.; also: nearly all actives have a fitted effect of over 50% in size; as to activity, positive = re-replication: % of control where 0% means no effect; conditions: MCF 10A DNA re-replication, Hoechst nuclear intensity, 48 h; activity, positive = re-replication: at 46.1 µM (top of the series)
Potency is read from the fitted curve at half-maximal effect; tags tell the direction and shape of the fitted curve.

SMILES | Potency | activity, positive = re-replication
COc1ccc2[nH]c3c4c(ccc3c2c1)C(=O)C=CC4=O | inconclusive [activator, full curve, poor fit] | 
CCCCn1c(NCc2ccc3c(c2)OCO3)nc2ccccc21 |  | inactive: 7.33%
COc1ccc(/C=C/C(=O)Oc2cc(C)[nH]c(=O)c2[N+](=O)[O-])cc1OC | inconclusive [activator, partial curve, poor fit] | 
COc1ccc(N(Cc2cc3ccc(C)cc3[nH]c2=O)S(=O)(=O)c2ccccc2)cc1 | inconclusive [activator, partial curve] | 
Cc1c(C(=O)NCCSCc2ccc(Cl)cc2Cl)cccc1[N+](=O)[O-] | inconclusive [activator, partial curve] | 
O=C(Nc1ccc(OCC(F)(F)C(F)F)c(C(F)(F)F)c1)c1ccccc1O | active: 11.6 µM | 
O=C(CSCc1nc2ccccc2[nH]1)N1CCN(c2cccc(Cl)c2)CC1 |  | inactive: 1.34%
CN1CCC(N(C)S(=O)(=O)c2ccc(NC(=O)COc3ccc(Cl)cc3)cc2)CC1 | inconclusive [activator, full curve, poor fit] | 
O=C(NCc1ccccn1)c1cc(-c2ccc(Br)cc2)nc2ccccc12 | inconclusive [activator, full curve] | 
COc1ccc(OC(=O)C2CC(=O)N(c3ccc(C)cc3)C2)cc1 (stereo unspecified) | inconclusive [activator, partial curve, poor fit] | 
CCc1ccc(-c2cc(C)no2)cc1S(=O)(=O)N1CCOc2ccccc21 | inconclusive [activator, partial curve, poor fit] | 
CCOc1ccc(S(=O)(=O)N2CCN(C(=S)NCc3ccccc3)CC2)cc1 | inconclusive [activator, partial curve] | 
O=c1c2ccccc2nc(-c2cccs2)n1-c1ccc2ccccc2c1 | inconclusive [activator, partial curve, poor fit] | 
CC(=O)c1c(C)n([O-])c2cc(C)ccc2[n+]1=O |  | inactive: 9.17%
C/C(=N\NC(=S)Nc1ccc(C)c(C)c1)c1ccc(N2CCOCC2)cc1 | inconclusive [activator, partial curve, poor fit] | 
O=C(CSc1ncn[nH]1)Nc1ccccc1Sc1ccc(Cl)cc1 | inconclusive [activator, full curve, poor fit] | 
CCCOc1c(Br)cc(C2C3=C(CCCC3=O)N(CC)C3=C2C(=O)CCC3)cc1OC | inconclusive [activator, single point] | 
O=C1CC[C@H](O)CCN1[C@H](CSc1ccc(Br)cc1)Cc1ccccc1 | inconclusive [activator, single point] | 
CC(OC(=O)/C(C#N)=C/c1ccc(N(C)C)cc1)C(=O)N(C)Cc1ccccc1 (stereo unspecified) | active: 16.4 µM | 
COc1ccc(N2CCN(C3CCCN(Cc4ccc(F)c(F)c4)C3)CC2)cc1 (stereo unspecified) | inconclusive [activator, single point] | 
CCn1nnnc1NCc1ccc(OCc2ccc(F)cc2Cl)c(OC)c1 |  | inactive: 2.12%
CCOc1ccc2nc(NCCCNC(=O)c3cc(OC)c(OC)c(OC)c3)c(C#N)cc2c1 | inconclusive [activator, single point] | 

SMILES | Potency | activity, positive = re-replication
CCCn1c(SCc2ccon2)nc2ccccc2c1=O | inconclusive [activator, partial curve, poor fit] | 
CCOC(=O)c1ccc(NC(=S)NNC(=O)c2cc(-c3cccnc3)nc3ccccc23)cc1 | inconclusive [activator, single point] | 
CCCNC(=O)c1ccc(COc2cccc3ccccc23)o1 |  | inactive: -3.33%
Cc1cc(COc2ccccc2OCc2cc(C)no2)on1 |  | inactive: 5.76%
CC(C)(C)C(C(=O)O)N1CCS(=O)(=O)CC1 (stereo unspecified) |  | inactive: -7.59%
Cc1cccc(NC(=O)CSc2nc3ccc(N4C(=O)c5ccccc5C4=O)cc3s2)c1C | active: 9.2 µM | 
O=C(c1cccc(F)c1)N1CCN(c2cccc(C(F)(F)F)c2)CC1 |  | inactive: -0.726%
COc1cc(NC(=O)c2ccccc2)c(OC)cc1NC(=O)Cc1ccc(F)cc1 | inconclusive [activator, single point] | 
CC(=O)c1cccc(NC(=O)c2cc(C)no2)c1 | inconclusive [activator, partial curve, poor fit] | 
COc1ccc(N=C2NC(=O)S/C2=C\c2ccc(N(C)C)cc2)cc1 |  | inconclusive: 67.6% [activator]
Cc1cc(C(=S)N2CCOCC2)c(C)n1-c1ccc(Cl)cc1 | inconclusive [activator, single point] | 
COCCN(C(=O)CC1C(=O)NCCN1CC(c1ccccc1)c1ccccc1)C(C)C (stereo unspecified) |  | inactive: -6.41%
CNC(C)C#Cc1ccc2c(=O)c3cc(C)c(C)cc3oc2c1 (stereo unspecified) | inconclusive [activator, single point] | 
O=C(Nc1ccc(-c2nc3cccnc3s2)cc1)C1CCCO1 (stereo unspecified) | inconclusive [activator, partial curve, poor fit] | 
COC(=O)c1ccc(Nc2cc(C)nc3ccccc23)cc1 | inconclusive [activator, single point] | 
O=C1c2ccccc2C(=O)N1Cc1ccco1 | inconclusive [activator, single point] | 
O=Nc1c2cc3ccccc3[nH]c-2c2ccccc12 | inconclusive [activator, partial curve, poor fit] | 
Cc1nn(Cc2ccccc2Cl)c2sc(C(=O)NC(C)(C)C)cc12 | inconclusive [activator, single point] | 
CC1(C)CC(=O)C=C(NC2=CC3OC(c4ccccc4)OCC3OC2=O)C1 (stereo unspecified) | inconclusive [activator, single point] | 
CN(C)CCCN(C(=O)c1cc(-c2cccs2)nc2ccccc12)c1nc2ccc(F)cc2s1 | inconclusive [activator, single point] | 
O=C(c1ccc(Cl)c(S(=O)(=O)N2CCCCC2)c1)N1CCCC(C(F)(F)F)C1 (stereo unspecified) | inconclusive [activator, single point] | 
Cc1ccc(S(=O)(=O)N(CC(=O)Nc2ccccc2C(=O)O)c2ccccc2C)cc1 | inconclusive [activator, single point] | 

SMILES | Potency | activity, positive = re-replication
CC1CC(C)(C)N(C(=O)CN2C(=O)c3ccccc3C2=O)c2ccccc21 (stereo unspecified) | inconclusive [activator, partial curve, poor fit] | 
NNC(=O)c1csc(-c2ccc(C(F)(F)F)cc2Cl)n1 |  | inactive: 23.2%
CC(NC(=O)c1ccccc1)C(=O)OCC(=O)N1c2ccccc2Sc2ccccc21 (stereo unspecified) | inconclusive [activator, partial curve, poor fit] | 
NS(=O)(=O)c1ccc(NC(=O)CN2CCN(S(=O)(=O)c3ccc(F)cc3)CC2)cc1 | inconclusive [activator, single point] | 
O=C(NCCCN1CCOCC1)c1ccc2c(=O)n(Cc3ccccc3)c(=S)[nH]c2c1 |  | inactive: 6.24%
CN(C)c1ccc(NC(=O)c2cc3c(=O)n4ccccc4nc3n2C)cc1 | inconclusive [activator, partial curve] | 
O=C(CCCN1C(=O)/C(=C/c2ccccc2Cl)SC1=S)Nc1ccccn1 | inconclusive [activator, single point] | 
N#C/C(=C\c1ccccc1)C(=O)Nc1cc(S(=O)(=O)N2CCOCC2)ccc1N1CCCC1 | inconclusive [activator, single point] | 
COc1ccc2c(c1)C(=NO)c1cc(OC)ccc1-2 | inconclusive [activator, partial curve] | 
O=C(COc1ccc(C(=O)NCC2CCCO2)cc1)Nc1cccc(C(F)(F)F)c1 (stereo unspecified) |  | inactive: 13.3%
COc1ccc(C(=O)NC(=S)Nc2ccc(Cc3ccncc3)cc2)cc1 | inconclusive [activator, partial curve, poor fit] | 
O=C(CSc1cccc2cccnc12)OCC(=O)c1ccccc1 | inconclusive [activator, single point] | 
CCNC(=O)N1c2ccc(OC)cc2C(C)=CC1(C)C | inconclusive [activator, single point] | 
COc1ccc(C(=O)OC(C)CN2CCOCC2)cc1 (stereo unspecified) |  | inactive: -4.29%
CCOc1cc(CNCCCN2CCOCC2)cc(Br)c1OCC(=O)Nc1cccc(C(F)(F)F)c1 | inconclusive [activator, single point] | 
COC(=O)[C@@H]1CCCN1Cc1c(C(=O)N2CCOCC2)nc2c(C)cccn12 |  | inactive: 0.439%
CCCc1nc2oc3ccccc3c(=O)c2c(=O)n1CCCOC | inconclusive [activator, partial curve, poor fit] | 
CCCCOCCCNC(=O)c1cccs1 | inconclusive [activator, partial curve, poor fit] | 
COc1cccc(NC(=O)c2cc(Cl)nnc2Cl)c1 | inconclusive [activator, single point] | 
O=C(CN1CCN(c2ccccc2F)CC1)N1CCc2ccccc21 |  | inactive: 3.2%
Cc1ccc(NC(=O)CSc2nc3ccc(Nc4nc(N5CCOCC5)nc(N5CCOCC5)n4)cc3s2)cc1 | active: 5.8 µM | 
COc1ccc2[nH]c3c(c2c1)CCN1C(=O)C(CC(=O)NCC24CC5CC(CC(C5)C2)C4)C[C@H](C(=O)N(C(C)C)C(C)C)[C@@]31C (stereo partly specified) | inconclusive [activator, partial curve, poor fit] | 
